In publication PMC9911399, “Two distinct binding modes provide the RNA-binding protein RbFox with extraordinary sequence specificity” one finds binding signal data, which are given here for 31 molecules.

Residue numbers refer to the chain shown, from its start. The list shows a part of the results.

T1: RBFOX1 RRM RbFoxmut (Fox-RRM*) (Homo sapiens, UniProt Q9NWB1 109-208, R118D;E147R;N151S;E152T)
T1 sequence: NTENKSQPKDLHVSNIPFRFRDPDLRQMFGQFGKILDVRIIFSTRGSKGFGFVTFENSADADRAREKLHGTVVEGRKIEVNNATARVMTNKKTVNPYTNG

B1: CUACCGC (DNA:RNA)
RNA: GGGAGACCGGAAUUCAGAUUGUCCCUACCGCUUAAAUCCCGUCGUAGCCACCA
DNA 1: CAATCTGAATTCCGGTCTCCC
DNA 2: TGGTGGCTACGACGGGATT
B2: UUUGUAU (DNA:RNA)
RNA: B1 RNA with C25U, A27U, C28G, C29U, G30A, C31U
DNA 1: CAATCTGAATTCCGGTCTCCC
DNA 2: TGGTGGCTACGACGGGATT
B3: UUCUGUU (DNA:RNA)
RNA: B1 RNA with C25U, A27C, C28U, C29G, G30U, C31U
DNA 1: CAATCTGAATTCCGGTCTCCC
DNA 2: TGGTGGCTACGACGGGATT
B4: GCGUCAU (DNA:RNA)
RNA: B1 RNA with C25G, U26C, A27G, C28U, G30A, C31U
DNA 1: CAATCTGAATTCCGGTCTCCC
DNA 2: TGGTGGCTACGACGGGATT
B5: CGCCUUU (DNA:RNA)
RNA: B1 RNA with U26G, A27C, C29U, G30U, C31U
DNA 1: CAATCTGAATTCCGGTCTCCC
DNA 2: TGGTGGCTACGACGGGATT
B6: UAUCGCC (DNA:RNA)
RNA: B1 RNA with C25U, U26A, A27U, C29G, G30C
DNA 1: CAATCTGAATTCCGGTCTCCC
DNA 2: TGGTGGCTACGACGGGATT
B7: UCUAUAC (DNA:RNA)
RNA: B1 RNA with C25U, U26C, A27U, C28A, C29U, G30A
DNA 1: CAATCTGAATTCCGGTCTCCC
DNA 2: TGGTGGCTACGACGGGATT
B8: UCAUUGA (DNA:RNA)
RNA: B1 RNA with C25U, U26C, C28U, C29U, C31A
DNA 1: CAATCTGAATTCCGGTCTCCC
DNA 2: TGGTGGCTACGACGGGATT
B9: AGCAGAG (DNA:RNA)
RNA: GGGAGACCGGAAUUCAGAUUGUCCAGCAGAGUUAAAUCCCGUCGUAGCCACCA
DNA 1: CAATCTGAATTCCGGTCTCCC
DNA 2: TGGTGGCTACGACGGGATT
B10: UAUGUUC (DNA:RNA)
RNA: B1 RNA with C25U, U26A, A27U, C28G, C29U, G30U
DNA 1: CAATCTGAATTCCGGTCTCCC
DNA 2: TGGTGGCTACGACGGGATT
B11: UCCGAAC (DNA:RNA)
RNA: B9 RNA with A25U, G26C, A28G, G29A, G31C
DNA 1: CAATCTGAATTCCGGTCTCCC
DNA 2: TGGTGGCTACGACGGGATT
B12: ACCUUUU (DNA:RNA)
RNA: B9 RNA with G26C, A28U, G29U, A30U, G31U
DNA 1: CAATCTGAATTCCGGTCTCCC
DNA 2: TGGTGGCTACGACGGGATT
B13: AAGGUCA (DNA:RNA)
RNA: B9 RNA with G26A, C27G, A28G, G29U, A30C, G31A
DNA 1: CAATCTGAATTCCGGTCTCCC
DNA 2: TGGTGGCTACGACGGGATT
B14: CAUAACG (DNA:RNA)
RNA: B9 RNA with A25C, G26A, C27U, G29A, A30C
DNA 1: CAATCTGAATTCCGGTCTCCC
DNA 2: TGGTGGCTACGACGGGATT
B15: GAGCACA (DNA:RNA)
RNA: B1 RNA with C25G, U26A, A27G, C29A, G30C, C31A
DNA 1: CAATCTGAATTCCGGTCTCCC
DNA 2: TGGTGGCTACGACGGGATT
B16: GAUCAAC (DNA:RNA)
RNA: B1 RNA with C25G, U26A, A27U, C29A, G30A
DNA 1: CAATCTGAATTCCGGTCTCCC
DNA 2: TGGTGGCTACGACGGGATT
B17: CCGGUAG (DNA:RNA)
RNA: B9 RNA with A25C, G26C, C27G, A28G, G29U
DNA 1: CAATCTGAATTCCGGTCTCCC
DNA 2: TGGTGGCTACGACGGGATT
B18: GUUUGCA (DNA:RNA)
RNA: B9 RNA with A25G, G26U, C27U, A28U, A30C, G31A
DNA 1: CAATCTGAATTCCGGTCTCCC
DNA 2: TGGTGGCTACGACGGGATT
B19: GUGCUCG (DNA:RNA)
RNA: B1 RNA with C25G, A27G, C29U, G30C, C31G
DNA 1: CAATCTGAATTCCGGTCTCCC
DNA 2: TGGTGGCTACGACGGGATT
B20: UGAAACU (DNA:RNA)
RNA: B9 RNA with A25U, C27A, G29A, A30C, G31U
DNA 1: CAATCTGAATTCCGGTCTCCC
DNA 2: TGGTGGCTACGACGGGATT
B21: CUUUCAA (DNA:RNA)
RNA: B1 RNA with A27U, C28U, G30A, C31A
DNA 1: CAATCTGAATTCCGGTCTCCC
DNA 2: TGGTGGCTACGACGGGATT
B22: CCGUUAU (DNA:RNA)
RNA: B9 RNA with A25C, G26C, C27G, A28U, G29U, G31U
DNA 1: CAATCTGAATTCCGGTCTCCC
DNA 2: TGGTGGCTACGACGGGATT
B23: AGACGCU (DNA:RNA)
RNA: B9 RNA with C27A, A28C, A30C, G31U
DNA 1: CAATCTGAATTCCGGTCTCCC
DNA 2: TGGTGGCTACGACGGGATT
B24: CAAUGAG (DNA:RNA)
RNA: B9 RNA with A25C, G26A, C27A, A28U
DNA 1: CAATCTGAATTCCGGTCTCCC
DNA 2: TGGTGGCTACGACGGGATT
B25: UGCUAGG (DNA:RNA)
RNA: B9 RNA with A25U, A28U, G29A, A30G
DNA 1: CAATCTGAATTCCGGTCTCCC
DNA 2: TGGTGGCTACGACGGGATT
B26: UGUUCUG (DNA:RNA)
RNA: B9 RNA with A25U, C27U, A28U, G29C, A30U
DNA 1: CAATCTGAATTCCGGTCTCCC
DNA 2: TGGTGGCTACGACGGGATT
B27: UACGCCA (DNA:RNA)
RNA: B9 RNA with A25U, G26A, A28G, G29C, A30C, G31A
DNA 1: CAATCTGAATTCCGGTCTCCC
DNA 2: TGGTGGCTACGACGGGATT
B28: GCGUGCU (DNA:RNA)
RNA: B9 RNA with A25G, G26C, C27G, A28U, A30C, G31U
DNA 1: CAATCTGAATTCCGGTCTCCC
DNA 2: TGGTGGCTACGACGGGATT
B29: AGCUGAC (DNA:RNA)
RNA: B9 RNA with A28U, G31C
DNA 1: CAATCTGAATTCCGGTCTCCC
DNA 2: TGGTGGCTACGACGGGATT
B30: CCGUCUA (DNA:RNA)
RNA: B1 RNA with U26C, A27G, C28U, G30U, C31A
DNA 1: CAATCTGAATTCCGGTCTCCC
DNA 2: TGGTGGCTACGACGGGATT
B31: GACAUAU (DNA:RNA)
RNA: B9 RNA with A25G, G26A, G29U, G31U
DNA 1: CAATCTGAATTCCGGTCTCCC
DNA 2: TGGTGGCTACGACGGGATT

This experiment concerns the target T1, RBFOX1 RRM RbFoxmut (Fox-RRM*). In words: EMSA; HiTS-Eq, 1 nM pool, 10 min; buffer printed only for the single-RNA assays: 10 mM Tris pH 7.5, 150 mM NaCl, 3.4 mM EDTA, 0.001% NP-40, 30 C. As to conditions: tags: His6 N-terminal (pET28a); label: 5' 32P. Summed up: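 Relative association constants, normalised to the cognate motif, were derived by comparing read counts of each RNA species with those of the control reaction. The RNA sequenced was the free fraction, separated by 8% native PAGE after a 10 min equilibration in 50 µL of 1 nM 5′-radiolabelled RNA (7 randomized nucleotides) with increasing concentrations of purified wild-type or mutant RbFox RRM.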
On the technique in general: A gel shift assay detects complexes by their altered migration in electrophoresis.
Take B1: the binding signal was 0.108 KA relative to UGCAUGU.
Under B2 stands 0.156 KA relative to UGCAUGU; under B3, 0.105 KA relative to UGCAUGU; under B4, 0.0884 KA relative to UGCAUGU.
Consider B5, for which the binding signal was 0.0753 KA relative to UGCAUGU.
For B6, the binding signal was 0.124 KA relative to UGCAUGU.
As for B7, the binding signal is 0.102 KA relative to UGCAUGU.
Then B8, with 0.13 KA relative to UGCAUGU.
Under B9 stands 0.13 KA relative to UGCAUGU; under B10, 0.125 KA relative to UGCAUGU; under B11, 0.0579 KA relative to UGCAUGU.
Under B12 stands 0.0865 KA relative to UGCAUGU.
B13: the binding signal was 0.0765 KA relative to UGCAUGU.
Take B14: the binding signal is 0.14 KA relative to UGCAUGU.
Under B15 stands 0.0821 KA relative to UGCAUGU; under B16, 0.0512 KA relative to UGCAUGU; under B17, 0.132 KA relative to UGCAUGU.
Under B18 stands 0.353 KA relative to UGCAUGU.
Under B19 stands 0.226 KA relative to UGCAUGU; under B20, 0.0458 KA relative to UGCAUGU; under B21, 0.0664 KA relative to UGCAUGU.
Regarding B22, the binding signal was 0.0907 KA relative to UGCAUGU.
Then B23, with 0.0715 KA relative to UGCAUGU; and B24, with 0.103 KA relative to UGCAUGU.
Then B25, with 0.0839 KA relative to UGCAUGU; and B26, with 0.165 KA relative to UGCAUGU; and B27, with 0.112 KA relative to UGCAUGU.
Then B28, with 0.0932 KA relative to UGCAUGU.
Take B29: the binding signal is 0.109 KA relative to UGCAUGU.
Then B30, with 0.0866 KA relative to UGCAUGU; and B31, with 0.107 KA relative to UGCAUGU.
